In the supplement of paper PMC11417369:
± gives the standard deviation of the averaged measurements. The list shows a part of the results.

system: PfAP2-EXP AP2 domain (GST-tagged); experiment: gcPBM binding intensity (ln(normalized median fluorescence intensity)); higher = stronger DNA binding
Summary of the method: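 GST-tagged P. falciparum DNA-binding domains, expressed in E. coli (about 25 μg on average), were applied for 1 h to an Agilent 4 × 180k array of primer-extended double-stranded 36-bp intergenic genomic probes plus negative controls. The binding buffer was 1× PBS with 1% milk, 0.2 mg/ml BSA, 0.5% salmon testes DNA and 0.03% Triton X-100. Bound protein was detected with Alexa488 anti-GST antibody and scanned at 488 nm. Binding intensity is the highest Masliner-normalised natural-log median intensity across replicate spots of either probe orientation.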

Sequence	gcPBM binding intensity (ln)
GAATGAATACGTTTTACACACTTGAATCTAATTTCA [CACACA_site6593]	8.55 ± 0.38
ATTCTACTTTTATTTATTTATTTGTTTATATATATA [XGTACX_negctrl_site609]	9.12 ± 0.49
TTTTTTATTCATGTAACACACATTTAATTATGAATT [CACACA_site2706]	8.51 ± 0.43
AAAGAATTTGCATATACACACAAAAAAATATATACA [CACACA_site386]	8.6 ± 0.51
GTGTAGATATTGAAATGTACTCTCCATATAAAATAA [XGTACX_site4713]	8.38 ± 0.3
ATATATATATATATATGTACTTATTTATTTATATTA [XGTACX_site4646]	10.3 ± 0.39
TTACGATACTTTAGGTGTACACAAATATACATGAAT [XGTACX_site4322]	8.97 ± 0.33
TATAAATATAAATATACACACATATATATATATATA [CACACA_site1678]	9.99 ± 0.4
TTGCATTAATTTATGTGTACATATAAATTTTTATTT [XGTACX_site3060]	8.64 ± 0.3
ATCAGTCGGCAGGACAGTACACAGTAGCCAGAAAAT [XGTACX_site2550]	8.71 ± 0.45
CTTATAGGTCATTTCCTTGACCCCCTTTGTTGTACT [CACACA_negctrl_site551]	8.71 ± 0.33
TAAAAAAATATTACATGTACATAAAATATATATATA [XGTACX_site4633]	9.52 ± 0.26
CAATTATATAATTGAAGTACTAGGAAAGATATATAT [XGTACX_site5459]	9.01 ± 0.51
TTTAAAAAAAGCAGTACATGCAAAATAATAACAAGC [TGCATGCA_site392]	9.62 ± 0.23
AATTAAATTCGGTACTGTACATTTCAAAAATATACG [XGTACX_site48]	8.38 ± 0.38
CTTAAATTTTACTGAAGTACAAAATCGGTTCAATGA [XGTACX_site3292]	8.23 ± 0.42
GGGAAAAAAAAAAGCACACATACGTAAATATATAAC [CACACA_site226]	8.83 ± 0.57
TATACATATTTTTTTTGTACATATATAATATATATA [XGTACX_site2399]	8.48 ± 0.35
ATGTGTTAAAAATGCACACAAAAAAATATACATATA [CACACA_site295]	8.6 ± 0.42
ACATGTGAACATTCAATGCACACGATGTAATTATAC [CACACA_site14]	8.78 ± 0.31
ATATTATATATATACACACACACATGCATGCACCTA [CACACA_site106]	10.07 ± 0.099
TTTTTTAAATATATGGTGCATAGAAAGATATTATAC [GTGCAC_site9984]	8.9 ± 0.3

Sequence	gcPBM binding intensity (ln)
TCATTAAAAACTAAAAGTACTCAATATTATGAACAT [XGTACX_site7807]	8.54 ± 0.52
GGATTTATTATATATACACACATACAGATATATATA [CACACA_site5222]	8.48 ± 0.3
TGTAGAAATGGGTGCACACACATATAAAATCTATAT [CACACA_site7224]	9.25 ± 0.51
TAAAAAAATAAATATACACACATATATATATATATA [CACACA_site1089]	10.2 ± 0.29
CATATATATTTGTTCACACACACACTAGAAAAAAAA [CACACA_site5380]	8.72 ± 0.59
ATAAAAAATAAAATAAATAAAAAATATTTACCCTTA [TGCATGCA_negctrl_site396]	7.95 ± 0.44
ATATTGTAGATATTGTGTACATATTTTACAACTTTT [XGTACX_site7621]	8.41 ± 0.15
TATGTACACCCATATACACACCTCTATAATATATAT [CACACA_site4563]	8.86 ± 0.43
AAACAAAATTTATTTCAAAGTTAATAATTTTTATGT [CACACA_negctrl_site232]	7.91 ± 0.47
ACATCATATTAAGAAAGTACAAAAAGAGAACATATA [XGTACX_site1268]	8.99 ± 0.33
TTGTTCGATATATGCACACAGTTTTGTTATTTTTCC [CACACA_site4972]	8.89 ± 0.41
ATGAATAAATAGGTCACACACAAATATATATAAATA [CACACA_site2416]	8.87 ± 0.47
CACTACACTGTTAATAGTACATATATTTAAAAAAAA [XGTACX_site7371]	8.37 ± 0.35
CACACCCACCAACACACACACAAAAAAAAAAAGAAA [CACACA_site500]	8.41 ± 0.63
ATATTTTATTTTAATACACACAAGTTATATAATCAC [CACACA_site780]	8.41 ± 0.36
AAAAGGTATAGAAACACACACACGTGAATATAGTTT [CACACA_site1905]	8.73 ± 0.54
AAAAAAAACGGACACACACACATAAATATATATAAA [CACACA_site4260]	9.02 ± 0.4
ACATATGTTTTATGTAGTACTTATTTATTATTATAT [XGTACX_site7528]	8.74 ± 0.27
AAAAAAAAAAAAAGTGCACACATAAAAATATGATCT [CACACA_site8090]	8.85 ± 0.18
TACAAATTTATATAAAGTACAAAAAATAATAAAAAT [XGTACX_site7355]	8.92 ± 0.52
TCAAATAATAAGTATGCATGCTATATTTATATATAC [TGCATGCA_site920]	9.02 ± 0.18
AAACGTACATAATACACACACATGTATACCTATAAA [CACACA_site7051]	8.71 ± 0.3
